Assay results as given in article PMC7819943, “Rice protein-binding microarrays: a tool to detect cis-acting elements near promoter regions in rice”.
Some of the results follow.

Target: T1, OsWOX13 (Oryza sativa, UniProt Q5QMM3 1-267)
T1 sequence: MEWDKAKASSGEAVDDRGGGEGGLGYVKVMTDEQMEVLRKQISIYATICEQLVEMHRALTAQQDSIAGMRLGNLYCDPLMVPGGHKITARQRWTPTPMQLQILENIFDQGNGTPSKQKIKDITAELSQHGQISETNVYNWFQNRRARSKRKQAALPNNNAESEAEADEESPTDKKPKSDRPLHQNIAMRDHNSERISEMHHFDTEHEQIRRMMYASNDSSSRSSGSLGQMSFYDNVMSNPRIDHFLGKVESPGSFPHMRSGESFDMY
Test: protein-binding microarray (RPBM); PBS, 2% BSA, 51.3 ng/ul salmon testes DNA, 50 uM zinc acetate, 200 nM TF, 25 C, 1 h; high values mean tight binding
Settings: protein: recombinant; tags: N-terminal polyhistidine and DsRed monomer fusion (pET32a); label: CyDye5-dUTP incorporated in the synthesized complementary strand; 3' TTTTT single-stranded linker to array surface; dsDNA, one strand shown
Method in brief: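 The binding signal is fluorescence intensity per feature, in arbitrary units, read on an Axon 4000B scanner. Polyhistidine- and DsRed-tagged transcription factors (N-terminal fusions) from E. coli BL21-CodonPlus were purified on Ni–NTA and applied at 200 nM for 1 h at 25 °C to a double-stranded, BSA-blocked custom Agilent array in buffer with 50 µM zinc acetate.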

Sequence	binding signal
CATATATGAGAATTAGGAAGTAATTACTTACCTACTAGGACGGAGTCACCTAGTGCAG	4260 fluorescence intensity (a.u.)
GTAGATTAATAGCAAAATAAATTATAGATTTTACCTGCACCGGAGTCACCTAGTGCAG	25800 fluorescence intensity (a.u.)
CTCCTTGACTAATGTTGCGTTCTCTAATCTCCCTCTGACTCGGAGTCACCTAGTGCAG	3360 fluorescence intensity (a.u.)
GCCCTAAATAAAATTGGTAGATCTCAATTAGTTCTACAACCGGAGTCACCTAGTGCAG	5020 fluorescence intensity (a.u.)
ATAATTGGGCCCATCCTGTCTCCTTCCTTCCTCTCTACCCCGGAGTCACCTAGTGCAG	13300 fluorescence intensity (a.u.)
TCTTCATTAATTGAAGTTGGGACTTTAATAATCTTGTAATCGGAGTCACCTAGTGCAG	23300 fluorescence intensity (a.u.)
TGTAACTATTATATAAATTGGCTATTAAGTTTGACTATAGCGGAGTCACCTAGTGCAG	17800 fluorescence intensity (a.u.)
TTCTTAATGAACAGGTTGATTTGGAACTCATTGCGAAGGACGGAGTCACCTAGTGCAG	23500 fluorescence intensity (a.u.)
GAAGATTGAAACATACGCACGCTGAAACGCCGTAACTCTGCGGAGTCACCTAGTGCAG	27700 fluorescence intensity (a.u.)
CATTTAATTCATTGTTATATATATATATATATAGACACACCGGAGTCACCTAGTGCAG	3920 fluorescence intensity (a.u.)
CATAAAATAACAACTAATTTAACTCAAACCCCTAGCAATTCGGAGTCACCTAGTGCAG	3760 fluorescence intensity (a.u.)
CTTATATATATTCAATTACTGAGCAGCGCAACCGCGGAGACGGAGTCACCTAGTGCAG	4040 fluorescence intensity (a.u.)
AGAGATTGAACAGAGCTATGAAGAATTTTATGAAGATGTGCGGAGTCACCTAGTGCAG	7740 fluorescence intensity (a.u.)
TACCATGATTTGTATTGTGCGATATATTGAGTGGGGCCATCGGAGTCACCTAGTGCAG	28500 fluorescence intensity (a.u.)
ATCGTTTGATTTATTGTTAAATATACTTTCATGTACACATCGGAGTCACCTAGTGCAG	17900 fluorescence intensity (a.u.)
AGCGAAATTGCTAGTGATTCCAGCCATGGATCCACTCACCCGGAGTCACCTAGTGCAG	10000 fluorescence intensity (a.u.)
GCTGATTTCTGTAATTTCTTACGTGGGTCCAACAGGTGATCGGAGTCACCTAGTGCAG	31800 fluorescence intensity (a.u.)
TGGTTTTACTCATTCATCATTCAATCATGTCACGTATCCACGGAGTCACCTAGTGCAG	5010 fluorescence intensity (a.u.)
TGCTCTTGACGATCTTGGATTGATCATCTATGCATTTCAACGGAGTCACCTAGTGCAG	5900 fluorescence intensity (a.u.)
ACCAGGCAATCACTTGAGCCATACACAATCCATTCCATGACGGAGTCACCTAGTGCAG	4700 fluorescence intensity (a.u.)
AACAACCGGTAATTACTCCCTCGGTCCCTCAACATTTGACCGGAGTCACCTAGTGCAG	4800 fluorescence intensity (a.u.)

Sequence	binding signal
AAACACACACACAAAGATGATTGCTCAACACCTATAAATGCGGAGTCACCTAGTGCAG	4280 fluorescence intensity (a.u.)
CTCTAAACTTTACATGTCAATCCTCCAATTCAAATGGCCCCGGAGTCACCTAGTGCAG	5510 fluorescence intensity (a.u.)
GTGGGTTTAATTTGTTGTCCCTGATCAAATCAAAGCTGCCCGGAGTCACCTAGTGCAG	6980 fluorescence intensity (a.u.)
AGTGGCTGCCGAATTAATTGGATCGCGTGCTGCGTGCGTGCGGAGTCACCTAGTGCAG	5740 fluorescence intensity (a.u.)
ACTCTAATGAACACAAACTTTATATCAAAATTTTAGCCCTCGGAGTCACCTAGTGCAG	4500 fluorescence intensity (a.u.)
GGTAGAAATAAGGATTGATTGAGATTCACCTACCTTTTCTCGGAGTCACCTAGTGCAG	37500 fluorescence intensity (a.u.)
GGATTTGATTTGGAAGGATTTGGATTCGGAAATGAGCTCGCGGAGTCACCTAGTGCAG	16700 fluorescence intensity (a.u.)
AGCAGTACAATCATTGAAGGAATGTTCATGTCATTTCATCCGGAGTCACCTAGTGCAG	5180 fluorescence intensity (a.u.)
ACTGATTGCTACCGATCATTGCTAGCTGTTGAATTGAACCCGGAGTCACCTAGTGCAG	46100 fluorescence intensity (a.u.)
GCACTTAATCATCTAATTATTACGATGAGTCATTTATTGACGGAGTCACCTAGTGCAG	11900 fluorescence intensity (a.u.)
TTCTAATTGTGGCTTGTCTGGATCATTACCATCTTCCATACGGAGTCACCTAGTGCAG	5370 fluorescence intensity (a.u.)
TTATGTTGTCTCAATTAATTACATAGTTATAAACAGAAATCGGAGTCACCTAGTGCAG	3570 fluorescence intensity (a.u.)
ACGTTACGTATTATGATTGGCTCAGCCTTTACTGCCTTGGCGGAGTCACCTAGTGCAG	33300 fluorescence intensity (a.u.)
AATTTAAAATAGTTAATACTCAATTAATATGAGCTAATGGCGGAGTCACCTAGTGCAG	3850 fluorescence intensity (a.u.)
GCCCTTGATTTCTGACTAGATTTGTGTTATTCTACTTACACGGAGTCACCTAGTGCAG	27200 fluorescence intensity (a.u.)
TAGAGATTAGATTAGGATTAGAGAGGGATGAGCATGCCATCGGAGTCACCTAGTGCAG	14000 fluorescence intensity (a.u.)
CTAAATTAATACATGCTAAAATTTGGAGAAAGAGCGTGTTCGGAGTCACCTAGTGCAG	24100 fluorescence intensity (a.u.)
AATTTTAATCCATCAATGATCATCCATGTGCACATAAATACGGAGTCACCTAGTGCAG	5210 fluorescence intensity (a.u.)
CCATATGTACTAATTCTATAATTGAAAAGGAAGCAGGATGCGGAGTCACCTAGTGCAG	8630 fluorescence intensity (a.u.)
CCACAGTAAATTTATCTAAATATGCCCTAAAAGCCTACTTCGGAGTCACCTAGTGCAG	6940 fluorescence intensity (a.u.)
AGAAAATTGGGATTAAAACTCCCAATTCATCGCTGCTCCCCGGAGTCACCTAGTGCAG	16500 fluorescence intensity (a.u.)

Sequence	binding signal
CAAAATTTAAATTTTCAAATTTAATTTTGAAGTTGATTTCCGGAGTCACCTAGTGCAG	18100 fluorescence intensity (a.u.)
TCCAAATTCAAAATTATGTGATGTCGTACTTAAGGAATGCCGGAGTCACCTAGTGCAG	4510 fluorescence intensity (a.u.)
AGTGTGATTGGAACTAGTTACACGATTTTGCTCTTAATCACGGAGTCACCTAGTGCAG	39200 fluorescence intensity (a.u.)
GTTATTGTCTAAAACGTTAATTAAAATAAAATTGAAGGGGCGGAGTCACCTAGTGCAG	8070 fluorescence intensity (a.u.)
AATAACAGAACACATACAGGCATGAATCATTACAATAACACGGAGTCACCTAGTGCAG	3170 fluorescence intensity (a.u.)
GAACGCGCGTGACTAATAATTAATTAACTTCCTATCACTTCGGAGTCACCTAGTGCAG	10500 fluorescence intensity (a.u.)
TTGTATACATGGATTGACTATTTAATCTTATCACAAGACACGGAGTCACCTAGTGCAG	9510 fluorescence intensity (a.u.)
CCAATCAAATTTACGAATTTACAATTGAAGCAAACTAACACGGAGTCACCTAGTGCAG	4770 fluorescence intensity (a.u.)
GTGGGGATTGGGTAGGAGAAGGAGTGGGGAATTAGGTTAGCGGAGTCACCTAGTGCAG	3880 fluorescence intensity (a.u.)
TTGCTGATAGCTCATCATCAGTTTGATCGTGTCCGGAGGTCGGAGTCACCTAGTGCAG	14200 fluorescence intensity (a.u.)
ACACGCCACTGTCTAATTGTCTATTATCCTTTGCATGCCCCGGAGTCACCTAGTGCAG	6240 fluorescence intensity (a.u.)
TTCATAATTTGCTTCTTAGCATGACCAGTAATGCTGTAGACGGAGTCACCTAGTGCAG	9050 fluorescence intensity (a.u.)
CATCAATCGTACTGTACAGATTGGGGTTGCTCAGTTTGTTCGGAGTCACCTAGTGCAG	8890 fluorescence intensity (a.u.)
TCATAATGGAATTGAAAGAGTTCGAGATCCTTCGAGGTCACGGAGTCACCTAGTGCAG	16800 fluorescence intensity (a.u.)
GTTATTACCAATTATTCGAAAACGGAGTGACTATATATCACGGAGTCACCTAGTGCAG	6060 fluorescence intensity (a.u.)
CGTTTAACGTGTTAATAGAAAACGAGATAAACAGGGCACACGGAGTCACCTAGTGCAG	4050 fluorescence intensity (a.u.)
AGATGATTATATTCCTAACATCTGTATCATGCATGAAAATCGGAGTCACCTAGTGCAG	11200 fluorescence intensity (a.u.)
GAGACGAATCTTTTAATCCTAATTACACCATGATTTGACACGGAGTCACCTAGTGCAG	6040 fluorescence intensity (a.u.)
GTAAAGATTGAACCAAAGGAATGTTTCCAATAGGCTTTATCGGAGTCACCTAGTGCAG	5740 fluorescence intensity (a.u.)
TATCAATGATGGCCATGATTATTCGGTCTAGGAAAAGAACCGGAGTCACCTAGTGCAG	12900 fluorescence intensity (a.u.)
CAAATGAGCTAATACTTAATTAATAATGCGCTAATGGATCCGGAGTCACCTAGTGCAG	4340 fluorescence intensity (a.u.)

Sequence	binding signal
CACTTAATTTGTTAATTAAATATATTTTCCAAACAAATTTCGGAGTCACCTAGTGCAG	39100 fluorescence intensity (a.u.)
AAATTAAACTGATTTTAATATTTAGGGTCAAGATATTTGGCGGAGTCACCTAGTGCAG	40400 fluorescence intensity (a.u.)
ATTTGCATGATTGGAGGCAGTGAGCTCTAGCCATCCATCTCGGAGTCACCTAGTGCAG	18900 fluorescence intensity (a.u.)
TACTCGCGTCAATCATCGAGTCGCTCCGGCGCTTTACGATCGGAGTCACCTAGTGCAG	9460 fluorescence intensity (a.u.)
ATGATAATTGTATGAATTACATCTTGTATTTGCTGAAAGTCGGAGTCACCTAGTGCAG	27600 fluorescence intensity (a.u.)
GGGATTGAAGTGTAAAACAGAGGATTGCAAAACACAGGAACGGAGTCACCTAGTGCAG	4020 fluorescence intensity (a.u.)
GCCTAATTACACCATGATTTGACAATATGGTGCTACAGTACGGAGTCACCTAGTGCAG	24200 fluorescence intensity (a.u.)
ATTTGCAATTAATATTTTGCTGTTATCAACCCGGATAACTCGGAGTCACCTAGTGCAG	5620 fluorescence intensity (a.u.)
ATTAATCCATCTCACTAATCAATTCATTTGCACCATAATACGGAGTCACCTAGTGCAG	5200 fluorescence intensity (a.u.)
TTTAACGGCGGTTGACTAACGGTTGACTAACGTCGATTGCCGGAGTCACCTAGTGCAG	5090 fluorescence intensity (a.u.)
GAAAATAATTTAATATGGCAAAGAGTGATGGCCCACCACTCGGAGTCACCTAGTGCAG	9990 fluorescence intensity (a.u.)
TTGTACAAATCATCAATATCTACAACTTTTGTTTTGGTCACGGAGTCACCTAGTGCAG	3470 fluorescence intensity (a.u.)
TTTCGTCAATCTTGGTATCCATGGCCTCCAGTGCCAAAGTCGGAGTCACCTAGTGCAG	3400 fluorescence intensity (a.u.)
ACCTAAATTTGTGGCACTAATAGGTTTTCGGGCCGGCCCACGGAGTCACCTAGTGCAG	7240 fluorescence intensity (a.u.)
GGGTGTGATTGGGATTAGGAAATGAATGAAGGGTTAAGATCGGAGTCACCTAGTGCAG	36600 fluorescence intensity (a.u.)
CCCCATCGTCACTTATAATTTATGAATAAAACTTTTAGATCGGAGTCACCTAGTGCAG	4840 fluorescence intensity (a.u.)
AATAATTGCATCAAATAATTCTAGTAAGTTAATGAATTTACGGAGTCACCTAGTGCAG	15300 fluorescence intensity (a.u.)
TTTATTTAGTTTGTCAGACTAACTGGTATTGACACGACTGCGGAGTCACCTAGTGCAG	4140 fluorescence intensity (a.u.)
CTTGATGTGTAGATTGAATGTGAACTTCATTTTCGGTAGACGGAGTCACCTAGTGCAG	32800 fluorescence intensity (a.u.)
ACCGATTGAAGGTAGGAAACACAATTATCTAATGACGGTACGGAGTCACCTAGTGCAG	12500 fluorescence intensity (a.u.)
TTATGTATTGACTAAATTTGGTAATAAACTAAACGTAGATCGGAGTCACCTAGTGCAG	6140 fluorescence intensity (a.u.)
